Test results reported in PubChem BioAssay AID995 (National Center for Advancing Translational Sciences (NCATS), 2007).
“And” between values parts separate entries of the source, which are not always exact repeats. Equal values may be shown once. Screen size: about 72,000 compounds; about 710 (0.99%) were called active. Inconclusive results, whose numbers are uncertain, are shown with a selection of clear calls. Calls come from the whole dose curve; as a rule, active = well fitted inhibition curve with a large enough effect; inconclusive = small, poorly fitted or top-dose-only effect; inactive = no such curve, though single readings can be large or run the other way. Potencies beside an inconclusive call are fits to weak or partial responses and may not hold up.

Experiment: qHTS Assay for Inhibitors of the ERK Signaling Pathway using a Homogeneous Screening Assay; note: nearly all actives have a fitted effect of over 55% in size
Conditions: HEK293-V1b, vasopressin-stimulated pERK AlphaScreen; activity, negative = inhibition: at 57.5 µM (top of the series) unless noted
Method in brief: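 qHTS, compounds titrated on V1b-expressing HEK293 cells. Preincubation 30 min at 37C, vasopressin 25 nM for 5 min, lysis 10 min, bead incubation 5 hr at room temperature.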
% is set by controls: 0 for no effect and ±100 for the full control effect; potency is the fitted concentration of half-maximal effect; tags give direction and shape of the fitted curve.

Row | SMILES | Potency | activity, negative = inhibition
1 | Oc1ccc(Cl)c(Cl)c1Cl | inconclusive: 20 µM [inhibitor, partial curve, poor fit] | 
2 | CC[C@@]1(O)CC(O)c2c(cc3c(c2O)C(=O)c2c(O)ccc(O)c2C3=O)C1C(=O)OC (stereo partly drawn) | inconclusive: 10 µM [inhibitor, partial curve] | 
3 | CC(C)COC(=O)n1c(=O)oc2cc(S(=O)(=O)N3CCCCC3)ccc21 | inconclusive: 39.8 µM [inhibitor, single point] | 
4 | N[C@H](Cn1ccc(=O)[nH]c1=O)C(=O)O | inactive | 
5 | Cc1ccc2c(c1N)C(=O)c1ccccc1C2=O | inconclusive: 15.8 µM [inhibitor, full curve] | 
6 | CCCCCCCCCCCCCCCC[N+](C)(C)C | inconclusive: 39.8 µM [inhibitor, single point] | 
7 | CN1C[C@H](CNC(=O)OCc2ccccc2)C[C@@H]2c3cccc4c3c(cn4C)C[C@H]21 | inconclusive: 12.6 µM [inhibitor, partial curve] | 
8 | Brc1ccccc1-c1ccccc1 | inconclusive: 39.8 µM [inhibitor, single point] | 
9 | O=C(O)c1cc(O)c(O)c(O)c1 | inconclusive: 25.1 µM [inhibitor, partial curve] | 
10 | CN(C)CS/C(N)=N/[C@H](O)C(Cl)(Cl)Cl |  | inactive: 3.86% [at 11.5 µM]
11 | CCCCCCCCCOc1ccc2[nH]cc(CCN)c2c1 | inconclusive: 31.6 µM [inhibitor, single point] | 
12 | Clc1ccc(COC(Cn2ccnc2)c2ccc(Cl)cc2Cl)cc1 (stereo not drawn) | inconclusive: 39.8 µM [inhibitor, single point] | inconclusive: -43.7% [inhibitor]
13 | COc1ccc(C2=NCC(=O)N(CC(=O)NCc3ccco3)c3sc4c(c32)CCCC4)cc1 | inactive | 
14 | c1ccc(N2CCC3(CCNCC3)CC2)nc1 | inconclusive: 39.8 µM [inhibitor, single point] | 
15 | Cc1nc(-c2ccc(-c3ccc(C(=O)N4CCc5cc6c(cc54)C4(CCN(C)CC4)CO6)cc3)c(C)c2)no1 | inconclusive: 15.8 µM [inhibitor, partial curve] and inconclusive: 31.6 µM [inhibitor, single point] | 
16 | COc1ccc(Cl)cc1NC1=NCC(C)S1 (stereo not drawn) | inconclusive: 39.8 µM [inhibitor, single point] | 
17 | C[n+]1c(/C=C\c2ccc(O)c3ncccc23)[se]c2ccccc21 |  | inactive: -4.67% [at 11.5 µM]
18 | CC1O[C@@H](OC2CC[C@@]3(C=O)C4CC[C@]5(C)C(C6=CC(=O)OC6)CC[C@@]5(O)C4CC[C@]3(O)C2)C(O)C(O)C1O (stereo partly drawn) | inactive | 
19 | CCCN(CCC)[C@H]1CCc2c(F)ccc(O)c2C1 | inconclusive: 39.8 µM [inhibitor, single point] | 
20 | CNCCc1c(C)n[nH]c1C | inconclusive: 3.16 µM [inhibitor, full curve] | 
21 | CCCCC(CC)COC(=O)c1ccc(C(=O)OCC(CC)CCCC)c(C(=O)OCC(CC)CCCC)c1 (stereo not drawn) | inconclusive: 5.01 µM [inhibitor, partial curve, poor fit] | 
22 | CCCCCC[C@H]1C(=O)O[C@H](C)[C@H](NC(=O)c2cccc(NC=O)c2O)C(=O)O[C@@H](C)[C@@H]1OC(=O)CC(C)C | inconclusive: 1 µM [inhibitor, partial curve] | 
23 | COCCn1c(SCc2ccccc2Cl)nc2c1c(=O)[nH]c(=O)n2C | inconclusive: 25.1 µM [inhibitor, partial curve, poor fit] | 
24 | N#Cc1c(Cl)c(Cl)c(Cl)c(C#N)c1Cl | active: 2 µM | 
25 | c1ccc(Nc2ccc(Nc3ccccc3)cc2)cc1 | inconclusive: 7.94 µM [inhibitor, full curve] | 
26 | C[CH2][Hg][S]c1ccccc1C(=O)O | active: 10 µM | 
27 | C[C@@H]1CC[C@@]2(OC1)O[C@H]1[C@@H](O)[C@H]3[C@@H]4CC[C@H]5C[C@@H](O[C@@H]6O[C@H](CO)[C@H](O[C@@H]7O[C@H](CO)[C@@H](O)[C@H](O[C@@H]8OC[C@@H](O)[C@H](O)[C@H]8O)[C@H]7O[C@@H]7O[C@H](CO)[C@@H](O)[C@H](O[C@@H]8O[C@H](CO)[C@@H](O)[C@H](O)[C@H]8O)[C@H]7O)[C@H](O)[C@H]6O)[C@H](O)C[C@]5(C)[C@H]4CC[C@]3(C)[C@H]1[C@@H]2C | active: 31.6 µM | 
